Experimental data from PubChem BioAssay AID1240 (Sanford-Burnham Center for Chemical Genomics, 2008).
In all, about 50,000 compounds went through this assay and about 800 (1.6%) showed an effect of 50% or more. The list shows a part of the results.

target: Bcl-2-like protein 10 (Homo sapiens) (UniProt Q9HD36); assay: TR3 peptide-Bcl-B binding displacers, biochemical primary FP assay, phenotype converters (AID 1240); details: GST-Bcl-B / FITC-TR3 peptide fluorescence polarization; stronger effect = higher value; compound at 3.75 mg/L;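 also: 0% = Bcl-B with tracer peptide and DMSO and 100% = tracer peptide lacking Bcl-B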
Sequence of UniProt Q9HD36 (Q9HD36 whole entry, looked up): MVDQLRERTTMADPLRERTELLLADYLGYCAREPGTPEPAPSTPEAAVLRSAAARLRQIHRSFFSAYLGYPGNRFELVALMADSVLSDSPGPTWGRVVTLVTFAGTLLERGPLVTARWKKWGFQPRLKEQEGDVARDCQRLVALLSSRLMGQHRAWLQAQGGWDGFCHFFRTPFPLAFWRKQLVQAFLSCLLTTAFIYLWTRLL

Row | SMILES | displacement [%]
1 | O=C(NN1C(=O)/C(=C/c2ccc(O)cc2)SC1=S)c1ccccc1O | 1.9
